We go through 1 molecule from PubChem BioAssay AID248 (DTP/NCI, 2004).

Inconclusive results and toxic doses are left out. Not every entry of the source has a single result; some have several. The list is limited to them. An entry can have further records. Values given together differ, and nothing given here explains why; some may be repeats, others may stem from another dose, organism or construct than stated.

For this assay, the system named is L1210 leukemia ip in BDF1 mice, survival T/C. The assay is described as follows: NCI In Vivo Anticancer Drug Screen. Data for tumor model L1210 Leukemia (intraperitoneal) in B6D2F1 (BDF1) mice. The settings on record: endpoint: mean survival time; dose: 32.0 mg/kg/injection; schedule: Q04DX003 (ip); vehicle: saline; higher = longer survival.

On to `O=C(NP(=O)(N1CC1)N1CC1)c1cc(I)ccc1I`, for which the T/C was 104 % of control and 177 % of control.
